Out of some 310,000 compounds screened, about 2,200 (0.71%) showed an effect of 50% or more. The effect is printed as a negative number. The list shows a part of the results.
target: human ether-à-go-go-related gene (hERG) potassium channel (human, UniProt Q12809); assay: primary screen, population patch clamp on CHO cells stably expressing hERG
Sequence (Q12809 whole entry, looked up): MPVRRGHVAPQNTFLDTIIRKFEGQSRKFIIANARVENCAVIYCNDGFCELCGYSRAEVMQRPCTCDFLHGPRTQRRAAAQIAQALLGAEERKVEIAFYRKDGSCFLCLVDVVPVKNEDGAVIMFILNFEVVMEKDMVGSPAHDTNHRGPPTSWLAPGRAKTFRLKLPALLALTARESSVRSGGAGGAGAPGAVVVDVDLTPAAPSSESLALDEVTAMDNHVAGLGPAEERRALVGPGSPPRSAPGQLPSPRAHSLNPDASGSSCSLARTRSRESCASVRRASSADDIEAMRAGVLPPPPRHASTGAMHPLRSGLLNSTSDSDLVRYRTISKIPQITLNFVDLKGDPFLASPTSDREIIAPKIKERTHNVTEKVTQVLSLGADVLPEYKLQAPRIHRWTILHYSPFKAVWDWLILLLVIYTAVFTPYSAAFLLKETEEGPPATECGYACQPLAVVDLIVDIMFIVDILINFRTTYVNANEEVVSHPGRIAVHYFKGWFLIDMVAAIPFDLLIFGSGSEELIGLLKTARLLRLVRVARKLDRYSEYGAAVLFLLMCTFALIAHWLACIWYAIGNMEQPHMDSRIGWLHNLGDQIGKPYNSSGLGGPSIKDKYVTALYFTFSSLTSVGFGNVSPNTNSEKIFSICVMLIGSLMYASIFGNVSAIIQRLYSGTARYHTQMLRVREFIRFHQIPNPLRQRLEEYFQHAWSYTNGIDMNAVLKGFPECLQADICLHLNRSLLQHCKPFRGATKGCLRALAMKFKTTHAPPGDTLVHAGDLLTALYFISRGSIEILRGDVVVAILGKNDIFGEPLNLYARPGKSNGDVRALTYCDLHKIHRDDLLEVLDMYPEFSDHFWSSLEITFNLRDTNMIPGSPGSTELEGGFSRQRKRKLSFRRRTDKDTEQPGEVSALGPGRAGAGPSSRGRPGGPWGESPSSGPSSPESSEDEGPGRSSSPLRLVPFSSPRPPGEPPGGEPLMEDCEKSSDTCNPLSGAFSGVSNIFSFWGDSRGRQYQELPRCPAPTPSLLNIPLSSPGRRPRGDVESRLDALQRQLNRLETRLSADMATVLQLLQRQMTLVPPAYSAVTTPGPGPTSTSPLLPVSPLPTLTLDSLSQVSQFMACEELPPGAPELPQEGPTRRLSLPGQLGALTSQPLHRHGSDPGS

| Compound | hERG current change (%, negative = inhibition) at 1uM [%] |
| --- | --- |
| CN(CC(=O)NCCc1ccc(F)cc1)Cc1cccs1 | 7.54 |
| NS(=O)(=O)c1ccc(NC(=O)COC(=O)CSCc2ccc(F)cc2)cc1 | 8.94 |
| O=C(OCc1ccccc1F)c1ccc2c(c1)OCCO2 | 11 |
| O=[N+]([O-])c1cccc(-c2nnc3c4ccccc4c4ccccc4n23)c1 | 8.67 |
| COc1ccccc1NC(=O)C(C)OC(=O)c1cccc(-n2cnnn2)c1 (stereo not shown) | -4.04 |
| CC(=O)Nc1ccc(SCCN2CC[C@@H](O)CCC2=O)cc1 | 8.45 |
| Cc1onc(-c2ccccc2Cl)c1C(=O)Nc1ccc(-n2nncc2-c2ccco2)cc1 | 5.59 |
| COc1ccc(CN2CCN(Cc3cccc4nonc34)CC2CCO)c(C)c1C (stereo not shown) | -7.13 |
| O=C(O)c1ccc(N2C(=O)CC(N3CCC(c4nc5ccccc5[nH]4)CC3)C2=O)cc1 (stereo not shown) | 12.3 |
| O=C(CSc1nnc(-c2ccccc2Br)o1)N1CCN(C(=O)c2ccco2)CC1 | -9.7 |
| O=C(CSc1ncnc2c1nnn2Cc1ccccc1)NC1CCCCC1 | -2.06 |
| COCCn1nnnc1C(C(C)C)N1CCOCC1.Cl (stereo not shown) | 9.91 |
| COCCCNCCOCCOc1ccc(Cl)cc1Br.O=C(O)C(=O)O | -19.4 |
| CCOc1cc(/C=N\NC(=O)c2ccc(NC(=O)C(C)(C)C)cc2)ccc1OC(=O)c1cccc(C)c1 | 6.95 |
| O=C(CCc1nnc(CCCc2ccccc2)o1)NCCc1ccccc1 | 2.6 |
| Cc1ccc(-c2csc(NCCn3c(C(F)(F)F)nc4ccccc43)n2)cc1 | 5.37 |
| CC1(C)CC(=O)C=C(c2ccc(Cl)c(C(F)(F)F)c2)C1 | 5.81 |
| Cc1ccccc1NC(=O)NC(N)=O | 8.13 |
| CCOc1cc2c(Cl)ncnc2c(OCC)c1OCC | 17 |
| CC(c1ccco1)N(C(=O)c1ccc(Cl)s1)c1ccccn1 (stereo not shown) | 11 |
| COc1ccc(N(CC(=O)NCc2cccnc2)S(=O)(=O)c2ccccc2[N+](=O)[O-])c(OC)c1 | 0.92 |
| Cc1snc2sc(C(=O)c3ccc(Br)cc3)c(N)c12 | 9.74 |

| Compound | hERG current change (%, negative = inhibition) at 1uM [%] |
| --- | --- |
| OCCC1CN(Cc2nc(-c3ccccc3)cs2)CCN1C1CCCC1 (stereo not shown) | -39.2 |
| CC(=O)OC(C)[C@H]1CC[C@H]2[C@@H]3CC[C@H]4C[C@@H](OC(C)=O)CC[C@]4(C)C3=CC[C@]12C (stereo partly shown) | 7.92 |
| O=C1OC(c2ccc(Cl)cc2)=N/C1=C\C=C\c1ccco1 | 21 |
| Cc1ccc(S(=O)(=O)NCC(=O)Nc2ccc(C(F)(F)F)cc2)cc1 | 0.529 |
| CC(On1nnc2ccc(S(=O)(=O)N3CCOCC3)cc21)C(=O)Nc1ccccc1F (stereo not shown) | 5.04 |
| CC(=O)c1ccc(NC(=O)N2CCN(c3ccc(C)cc3)C(C)C2)cc1 (stereo not shown) | 3.77 |
| CCCCNC(=O)C1CC(=O)N(C2CCCC2)C1 (stereo not shown) | 9.88 |
| COCc1cc(=O)n2c(-c3ccc(C)cc3)n[nH]c2n1 | 8 |
| COc1ccc2cnn(-c3ccccc3)c(=O)c2c1OC | 10.1 |
| COc1ccc(CC(NC(C)=O)C(=O)NC2CCN(C(=O)Nc3ccccc3Cl)CC2)cc1OC (stereo not shown) | 14 |
| N#C/C(=C\c1ccccc1[N+](=O)[O-])C(=O)NC1CCCCC1 | 3.5 |
| O=C(NCCCO)c1nc2ccccc2s1 | 2.2 |
| Cn1c(=O)c2c(ncn2Cc2ccc(Cl)cc2)n(C)c1=O | 5.78 |
| CN(CCO)c1cc(N2CCN(C(=O)c3ccco3)CC2)c2nonc2c1[N+](=O)[O-] | -1.3 |
| COC(=O)CNC(=O)/C=C/c1cc(Br)ccc1OC | 11.4 |
| CC(C)CN1C(=O)C(=O)N(CC(=O)Nc2cc(Cl)ccc2Oc2ccccc2)C1=O | 2.76 |
| Cc1cc(N2CCN(C)CC2)nc2ccc(NC(=O)CCC(=O)NCCC3=CCCCC3)cc12 | -5.36 |
| CC(=O)c1cccc(NC(=O)N2CCCCCC2)c1 | 11 |
| Cc1c(C(=O)OCC(=O)c2c(N)n(CC(C)C)c(=O)n(C)c2=O)oc2ccccc12 | 16.4 |
| O=C(CN1CCCCC1)Nc1ccccc1Oc1ccccc1 | 10.1 |
| Cc1cc(C)nc(-n2ncc3c2CC(c2ccc(C(C)C)cc2)CC3=O)n1 (stereo not shown) | 9.52 |
| COc1ccc(CNC(=O)c2cnn3c(C(F)F)cc(C)nc23)cc1OC | 10.8 |

| Compound | hERG current change (%, negative = inhibition) at 1uM [%] |
| --- | --- |
| COc1ccc(Cl)cc1NC(=O)COC(=O)/C=C/c1c(C)nn(C2CCS(=O)(=O)C2)c1Cl (stereo not shown) | -1.91 |
| CC1Cc2cc(/C(O)=C3/C(=O)C(=O)N(CCN4CCOCC4)C3c3ccc(N(C)C)cc3)ccc2O1 (stereo not shown) | 12.3 |
| Cc1csc(SCC(=O)c2c(N)n(CC(C)C)c(=O)n(C)c2=O)n1 | 2.81 |
| COc1ccc(N(Cc2cc3ccccc3[nH]c2=O)C(=O)C2CCCO2)cc1 (stereo not shown) | 11.9 |
| COc1ccc(NC(=S)NCCCN2CCCC2)cc1Cl | 17.9 |
| Cc1cc(S(=O)(=O)NC2CCCCC2)c(C)s1 | -7.81 |
| CCc1noc(C)c1C(=O)Nc1nc(-c2ccc(OC)cc2OC)cs1 | 11.6 |
| Cc1cccc(C(=O)N2CCCCCC2)c1[N+](=O)[O-] | 8.31 |
| CCOc1ccc(Nc2nc(N3CCCC3)nc(N3CCN(c4ccc(OC)cc4)CC3)n2)cc1 | 3.56 |
| Cc1ccc(S(=O)(=O)N(C)Cc2ccccc2)cc1C(=O)N1CCCCC1 | 3.96 |
| Cc1c(Cl)cnc(NC(=O)COC(=O)c2cc3c(s2)CCC(C)C3)c1Cl (stereo not shown) | 16.3 |
| CCCOC(=O)c1ccc(Oc2coc3c(CN(CC)CC)c(O)ccc3c2=O)cc1 | 3.04 |
| CC(C)(C)NC(=O)COc1ccc(CNCCc2ccccc2)cc1.Cl | -1.02 |
| CCOCCCNC(=O)C1CCN(Cc2ccc(OCc3ccccc3)c(OC)c2)CC1.O=C(O)C(=O)O | -4.58 |
| C=CCNc1nc2ccccc2nc1NS(=O)(=O)c1ccc(OC)cc1 | 4.8 |
| COc1cccc(CNC(=O)C2CCCN(S(=O)(=O)c3c(C)[nH]c(=O)[nH]c3=O)C2)c1 (stereo not shown) | 4.35 |
| Cc1noc(C)c1C(=O)OCC(=O)N(C)C1(C#N)CCCCC1 | -2.93 |
| Cc1cnc(C(=O)OCC(=O)N2c3ccccc3CC2C)cn1 (stereo not shown) | 10.6 |
| Cn1c(CNC(=O)c2ccc3c(c2)OCO3)nnc1SCC(=O)Nc1ccccc1Cl | 7.29 |
| COC(=O)CNC(=O)C(Cc1c[nH]c2ccccc12)NC(=O)Oc1ccccc1 (stereo not shown) | -1.05 |
| O=C1NC(c2cccc([N+](=O)[O-])c2)=CCN1c1ccccc1O | 7.97 |
| CN1C2C=C3C(C#N)=C(N)C(C#N)(C#N)[C@@H](c4ccsc4)[C@@H]3C1CC2 (stereo partly shown) | 11.8 |

| Compound | hERG current change (%, negative = inhibition) at 1uM [%] |
| --- | --- |
| Cc1ccc(C(=O)COC(=O)COc2ccccc2[N+](=O)[O-])s1 | 17.1 |
| CC(C)(C)[C@@H]1C=C(C(=O)NC2CC2)O[C@H](OCc2ccc(CO)cc2)C1 | 8.97 |
| O=C(CSc1nccn1Cc1ccccc1)NC1CCCC1 | 14.8 |
| COc1ccc(C2c3c(oc4ccc(Cl)cc4c3=O)C(=O)N2CCN2CCOCC2)cc1 (stereo not shown) | -24 |
| Cc1cc(N2CCN(Cc3ccccc3)CC2)n2nc(C)c(-c3ccccc3)c2n1 | 0.371 |
| Cc1cc(C)n(CC(=O)N/N=C/c2ccccn2)n1 | 16.1 |
| CC(=O)c1ccc(N=Nc2c(C)[nH][nH]c2=O)cc1 | 14.1 |
| CCC(NC(=O)NC1CCCCC1)c1ccccc1 (stereo not shown) | 6.61 |
| O=C(O)C1CCCCC1C(=O)NCCc1ccc(Cl)cc1 (stereo not shown) | 14.9 |
| Cc1ccc2sc(NC(=O)C3CC3)nc2c1C | 8.01 |
| CCOc1ncccc1C(=O)OCC(=O)N(CC(C)C)c1c(N)n(Cc2ccccc2)c(=O)[nH]c1=O | 16.1 |
| Cc1ccc(SCCNS(=O)(=O)c2ccc3c(c2)OCCO3)cc1 | 11.7 |
| O=C(N/N=C/c1cccnc1)c1ccc(NC(=O)c2ccccc2Cl)cc1 | 9.37 |
| COCCCNC(=S)N(CCCN(C)C)Cc1cc2cc3c(cc2[nH]c1=O)OCCO3 | 11.2 |
| COc1ccc(NC(=O)CSc2nnc(CN3CCOCC3)n2C)cc1Cl | 0.376 |
| O=C(NCc1ccncc1)Nc1ccccc1 | 14.7 |
| CN(C)c1ccc(S(=O)(=O)N(C)C)cc1NC(=O)Cc1cccc2ccccc12 | 3.98 |
| CCn1c(C)nc2cc(C(=O)NNC(=O)Nc3cccc(Cl)c3)ccc21 | 17.4 |
| Cn1c(NC2CCCCC2)cc(=O)n(C)c1=O | 8.89 |
| CC(=O)c1c(C)[nH]c(C(=O)Nc2cccc(C#N)c2)c1C | 10.3 |
| COc1ccc(NC(=O)c2ccc(COc3ccccc3)o2)cc1 | 6.3 |
| CCOC(=O)C(=NC1CCS(=O)(=O)C1)NNc1cc(Cl)ccc1Cl (stereo not shown) | 3.27 |
